Article PMC12314375, “The GTPase κB-Ras is an essential subunit of the RalGAP tumor suppressor complex” (The Journal of Biological Chemistry, 2025)
Numbering of substitutions follows the chain as printed. These are yes or no findings as the source states them, for the method shown. For some of these results: Binding seen in cells or lysates may run through a third protein. Some results given as binding are weak or reduced against the parent protein; the word gives no strength.

Sequences of proteins named here, by UniProt entry; tags and fusion partners are left off. A change or cut given only in a name is not applied to a line headed by its entry. A line that says so, or that is headed by a name, gives the form on record, which may keep a tag or linker.
UniProt Q2PPJ7: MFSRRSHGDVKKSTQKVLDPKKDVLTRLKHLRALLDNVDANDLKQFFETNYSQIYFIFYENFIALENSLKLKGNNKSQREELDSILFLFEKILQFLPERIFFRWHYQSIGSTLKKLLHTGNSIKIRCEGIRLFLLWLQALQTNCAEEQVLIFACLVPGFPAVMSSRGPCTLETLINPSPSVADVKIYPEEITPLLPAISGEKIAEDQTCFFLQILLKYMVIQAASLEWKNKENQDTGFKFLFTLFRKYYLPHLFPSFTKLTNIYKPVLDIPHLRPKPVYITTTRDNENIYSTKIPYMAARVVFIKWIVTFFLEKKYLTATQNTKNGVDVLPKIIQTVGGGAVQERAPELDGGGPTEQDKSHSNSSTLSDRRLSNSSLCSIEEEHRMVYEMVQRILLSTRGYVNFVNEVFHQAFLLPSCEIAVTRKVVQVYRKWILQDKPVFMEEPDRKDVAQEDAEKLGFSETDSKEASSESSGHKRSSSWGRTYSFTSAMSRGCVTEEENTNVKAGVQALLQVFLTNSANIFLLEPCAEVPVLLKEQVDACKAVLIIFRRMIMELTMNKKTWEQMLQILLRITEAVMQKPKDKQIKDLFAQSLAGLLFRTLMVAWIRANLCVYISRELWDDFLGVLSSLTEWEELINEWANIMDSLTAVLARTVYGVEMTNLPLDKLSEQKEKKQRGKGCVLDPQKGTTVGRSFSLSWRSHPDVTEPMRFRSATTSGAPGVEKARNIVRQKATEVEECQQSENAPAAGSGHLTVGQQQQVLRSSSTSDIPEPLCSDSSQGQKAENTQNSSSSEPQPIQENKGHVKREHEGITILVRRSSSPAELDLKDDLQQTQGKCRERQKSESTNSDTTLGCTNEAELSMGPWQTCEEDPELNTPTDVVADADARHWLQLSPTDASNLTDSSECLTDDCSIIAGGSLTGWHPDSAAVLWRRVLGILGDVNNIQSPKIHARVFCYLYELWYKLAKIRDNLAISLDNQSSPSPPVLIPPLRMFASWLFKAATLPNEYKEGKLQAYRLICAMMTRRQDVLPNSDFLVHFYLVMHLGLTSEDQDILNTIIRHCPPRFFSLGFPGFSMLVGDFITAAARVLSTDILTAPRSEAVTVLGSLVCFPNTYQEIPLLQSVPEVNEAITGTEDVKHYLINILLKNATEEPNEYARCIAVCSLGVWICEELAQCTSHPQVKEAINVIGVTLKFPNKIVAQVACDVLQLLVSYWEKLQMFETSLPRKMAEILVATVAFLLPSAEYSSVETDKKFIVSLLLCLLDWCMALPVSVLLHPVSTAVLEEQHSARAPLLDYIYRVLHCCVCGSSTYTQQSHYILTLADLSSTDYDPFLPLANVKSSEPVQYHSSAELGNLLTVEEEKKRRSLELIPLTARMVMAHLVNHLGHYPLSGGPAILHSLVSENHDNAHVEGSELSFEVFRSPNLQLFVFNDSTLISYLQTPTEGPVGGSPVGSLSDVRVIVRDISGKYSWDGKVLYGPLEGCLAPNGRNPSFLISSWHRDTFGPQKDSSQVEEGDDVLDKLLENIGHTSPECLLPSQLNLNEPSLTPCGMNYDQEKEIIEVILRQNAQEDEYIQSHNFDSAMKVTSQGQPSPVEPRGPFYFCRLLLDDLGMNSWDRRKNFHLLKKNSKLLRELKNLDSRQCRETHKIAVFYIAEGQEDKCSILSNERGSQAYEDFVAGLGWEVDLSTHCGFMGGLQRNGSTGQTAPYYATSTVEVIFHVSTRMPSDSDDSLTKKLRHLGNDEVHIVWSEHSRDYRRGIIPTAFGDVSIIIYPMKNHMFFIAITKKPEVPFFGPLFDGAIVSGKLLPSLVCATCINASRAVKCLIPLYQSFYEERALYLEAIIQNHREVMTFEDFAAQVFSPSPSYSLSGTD
RGα2Δloop in the purified RGα2Δloop/RGβ complex (Q2PPJ7, form named): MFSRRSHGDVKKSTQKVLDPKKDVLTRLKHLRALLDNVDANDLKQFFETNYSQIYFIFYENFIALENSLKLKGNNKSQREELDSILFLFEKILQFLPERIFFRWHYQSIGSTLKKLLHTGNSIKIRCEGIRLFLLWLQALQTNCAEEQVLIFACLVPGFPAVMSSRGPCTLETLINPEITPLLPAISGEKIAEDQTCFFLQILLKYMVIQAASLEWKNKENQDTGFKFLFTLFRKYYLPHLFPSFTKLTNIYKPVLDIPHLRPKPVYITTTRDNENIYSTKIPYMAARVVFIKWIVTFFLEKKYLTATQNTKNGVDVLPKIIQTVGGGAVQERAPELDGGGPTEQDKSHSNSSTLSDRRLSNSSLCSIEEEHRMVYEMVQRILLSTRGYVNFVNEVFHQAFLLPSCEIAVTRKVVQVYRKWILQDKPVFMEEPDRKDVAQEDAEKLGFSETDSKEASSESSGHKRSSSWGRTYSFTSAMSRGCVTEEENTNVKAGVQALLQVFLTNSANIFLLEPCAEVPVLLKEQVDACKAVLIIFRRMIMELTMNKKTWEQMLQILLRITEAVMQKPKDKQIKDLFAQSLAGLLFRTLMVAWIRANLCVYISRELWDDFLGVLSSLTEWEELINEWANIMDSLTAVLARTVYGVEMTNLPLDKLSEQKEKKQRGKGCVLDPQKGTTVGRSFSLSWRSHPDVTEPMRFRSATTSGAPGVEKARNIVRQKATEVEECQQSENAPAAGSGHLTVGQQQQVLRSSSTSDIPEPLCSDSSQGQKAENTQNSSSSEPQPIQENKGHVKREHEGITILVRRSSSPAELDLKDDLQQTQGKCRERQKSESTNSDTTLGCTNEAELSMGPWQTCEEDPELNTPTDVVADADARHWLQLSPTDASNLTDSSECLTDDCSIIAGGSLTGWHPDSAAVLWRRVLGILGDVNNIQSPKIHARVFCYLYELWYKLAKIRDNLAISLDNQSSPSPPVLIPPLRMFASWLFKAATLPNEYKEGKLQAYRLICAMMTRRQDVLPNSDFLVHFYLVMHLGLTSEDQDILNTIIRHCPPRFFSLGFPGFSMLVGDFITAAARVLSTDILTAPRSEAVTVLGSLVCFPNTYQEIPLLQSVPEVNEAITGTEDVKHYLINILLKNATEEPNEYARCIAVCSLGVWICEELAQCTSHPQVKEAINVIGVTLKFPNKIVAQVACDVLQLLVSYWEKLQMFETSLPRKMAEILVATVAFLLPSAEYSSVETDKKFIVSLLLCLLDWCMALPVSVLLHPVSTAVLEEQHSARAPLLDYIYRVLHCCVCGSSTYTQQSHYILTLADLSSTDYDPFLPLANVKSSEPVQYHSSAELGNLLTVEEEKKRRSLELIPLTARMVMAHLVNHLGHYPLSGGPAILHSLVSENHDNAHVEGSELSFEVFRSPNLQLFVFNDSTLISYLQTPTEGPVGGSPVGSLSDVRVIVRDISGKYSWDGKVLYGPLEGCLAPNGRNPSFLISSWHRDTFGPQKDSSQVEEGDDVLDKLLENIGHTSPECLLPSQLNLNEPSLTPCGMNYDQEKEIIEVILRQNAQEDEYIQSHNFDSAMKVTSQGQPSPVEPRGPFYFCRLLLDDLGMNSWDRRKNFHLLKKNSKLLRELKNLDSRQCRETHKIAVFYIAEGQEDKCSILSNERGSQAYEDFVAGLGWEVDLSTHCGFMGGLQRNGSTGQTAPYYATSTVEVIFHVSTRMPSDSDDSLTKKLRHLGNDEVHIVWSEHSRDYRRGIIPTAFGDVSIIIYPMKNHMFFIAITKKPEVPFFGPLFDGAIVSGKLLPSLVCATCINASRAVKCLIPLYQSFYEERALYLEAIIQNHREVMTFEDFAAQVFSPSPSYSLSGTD

Key:
[1] = molecular target: T1, RGβ in the purified RalGAP complexes (UniProt Q86X10); assay: co-purification; RalGAP complexes expressed in Expi293F cells and purified as complexes (as in ref. 21), then used in the in vitro GAP assay
T1 sequence: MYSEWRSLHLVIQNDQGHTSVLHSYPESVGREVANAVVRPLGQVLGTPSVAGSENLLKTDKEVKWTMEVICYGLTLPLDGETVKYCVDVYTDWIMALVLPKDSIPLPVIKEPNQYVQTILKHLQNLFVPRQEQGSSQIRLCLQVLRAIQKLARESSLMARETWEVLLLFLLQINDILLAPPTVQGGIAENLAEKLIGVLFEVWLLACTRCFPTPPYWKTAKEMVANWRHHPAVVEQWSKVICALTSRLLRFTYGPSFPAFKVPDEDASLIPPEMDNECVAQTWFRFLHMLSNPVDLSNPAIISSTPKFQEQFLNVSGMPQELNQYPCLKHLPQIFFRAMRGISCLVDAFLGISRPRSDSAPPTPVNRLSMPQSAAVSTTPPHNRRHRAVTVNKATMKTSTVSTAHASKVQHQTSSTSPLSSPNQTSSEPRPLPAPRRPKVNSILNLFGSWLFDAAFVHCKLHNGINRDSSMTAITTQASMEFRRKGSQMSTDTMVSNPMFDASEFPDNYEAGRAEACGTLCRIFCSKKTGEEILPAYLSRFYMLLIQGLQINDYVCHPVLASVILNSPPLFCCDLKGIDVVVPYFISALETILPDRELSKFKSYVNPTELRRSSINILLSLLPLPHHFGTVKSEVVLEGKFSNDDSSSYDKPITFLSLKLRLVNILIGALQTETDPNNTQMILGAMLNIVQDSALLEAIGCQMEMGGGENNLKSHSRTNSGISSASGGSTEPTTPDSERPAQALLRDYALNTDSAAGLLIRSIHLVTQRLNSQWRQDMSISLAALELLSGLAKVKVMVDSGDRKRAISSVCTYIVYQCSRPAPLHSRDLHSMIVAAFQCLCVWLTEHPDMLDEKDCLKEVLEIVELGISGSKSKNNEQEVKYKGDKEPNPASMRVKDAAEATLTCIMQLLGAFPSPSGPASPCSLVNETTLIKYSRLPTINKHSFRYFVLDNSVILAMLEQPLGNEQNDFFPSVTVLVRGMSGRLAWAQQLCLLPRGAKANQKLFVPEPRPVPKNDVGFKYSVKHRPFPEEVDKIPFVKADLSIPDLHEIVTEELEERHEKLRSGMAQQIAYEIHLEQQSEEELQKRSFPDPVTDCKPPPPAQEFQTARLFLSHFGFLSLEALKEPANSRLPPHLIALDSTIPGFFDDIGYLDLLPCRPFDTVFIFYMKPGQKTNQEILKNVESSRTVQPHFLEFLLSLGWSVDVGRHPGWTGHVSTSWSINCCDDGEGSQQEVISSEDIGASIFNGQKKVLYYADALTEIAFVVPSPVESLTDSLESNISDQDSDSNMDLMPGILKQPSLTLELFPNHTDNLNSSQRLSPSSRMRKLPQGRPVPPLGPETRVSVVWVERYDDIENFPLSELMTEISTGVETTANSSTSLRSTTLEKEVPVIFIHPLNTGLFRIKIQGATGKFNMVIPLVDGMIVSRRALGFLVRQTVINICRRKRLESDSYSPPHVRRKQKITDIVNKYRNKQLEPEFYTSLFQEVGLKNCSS

[2] = molecular target: T2, κB-Ras1 in the purified trimeric RGα2/RGβ/κB-Ras1 complex (UniProt Q9NYS0); assay: as above
T2 sequence: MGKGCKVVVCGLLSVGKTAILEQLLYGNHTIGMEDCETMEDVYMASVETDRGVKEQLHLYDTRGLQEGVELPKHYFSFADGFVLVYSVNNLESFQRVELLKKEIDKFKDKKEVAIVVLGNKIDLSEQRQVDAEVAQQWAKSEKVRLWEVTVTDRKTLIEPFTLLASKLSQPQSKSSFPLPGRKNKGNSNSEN

κB-Ras1 A45Q (pCTAPa) = molecular target: T3, κB-Ras1 A45Q (pCTAPa) (UniProt Q9NYS0); assay: co-IP; HEK 293FT transfected with p3xFLAG-CVM7-RGα2, HA-pKH3-RGβ and pCTAPa-κB-Ras1; lysis in 40 mM Hepes, 120 mM NaCl, 10 mM MgCl2, 0.3% CHAPS, pH 7.4; κB-Ras1 precipitated on Streptavidin Sepharose; immunoblot
T3 sequence: T2 sequence with A45Q

κB-Ras1 D41A (pCTAPa) = molecular target: T4, κB-Ras1 D41A (pCTAPa) (UniProt Q9NYS0); assay: as above
T4 sequence: T2 sequence with D41A

κB-Ras1 H58D (pCTAPa) = molecular target: T5, κB-Ras1 H58D (pCTAPa) (UniProt Q9NYS0); assay: as above
T5 sequence: T2 sequence with H58D

κB-Ras1 S46Y (pCTAPa) = molecular target: T6, κB-Ras1 S46Y (pCTAPa) (UniProt Q9NYS0); assay: as above
T6 sequence: T2 sequence with S46Y

κB-Ras1 V47D (pCTAPa) = molecular target: T7, κB-Ras1 V47D (pCTAPa) (UniProt Q9NYS0); assay: as above
T7 sequence: T2 sequence with V47D

[3] = molecular target: T8, κB-Ras1 WT (pCTAPa-κB-Ras1) (UniProt Q9NYS0); assay: as above
T8 sequence: T2 sequence

“RGα2 in the purified RalGAP complexes (from UniProt Q2PPJ7 1-1873)” was tested, and the binding [1] was “binds” and the binding [2] was “binds”.

For “RGα2fl/RGβ (RalGAP complex of 3xFLAG-RGα2 and HA-RGβ) (from UniProt Q2PPJ7 1-1873; Q86X10 1-1494)”, the binding (κB-Ras1 A45Q (pCTAPa)) was “no binding”, the binding (κB-Ras1 D41A (pCTAPa)) was “no binding” and the binding (κB-Ras1 H58D (pCTAPa)) was “no binding”. The binding (κB-Ras1 S46Y (pCTAPa)) was “binds”, the binding (κB-Ras1 V47D (pCTAPa)) was “no binding” and the binding [3] was “binds”.

With “RGα2Δloop in the purified RGα2Δloop/RGβ complex (from UniProt Q2PPJ7 1-1873)” the binding [1] was “binds”.

With “RGα2Δloop/RGβ (RalGAP complex with RGα2 lacking residues 178–189) (from UniProt Q2PPJ7 1-1873; Q86X10 1-1494)” the binding [3] was “no binding”.
